This passage reports binding signal results from PMC12136788.

Some of the results follow.

The labels stand for the following.
B1: chr8:127356239:127356240:+_ENSMUSG00000036913_ENSMUST00000167588|mus_hu|FALSE|FALSE (ssRNA)
RNA: GGGAGUUCUACAGUCCGACGAUCGCCCAGGCUCAAUCCGGAAAGCACCACCCUCCUCAAACUUGGUGGGCCAUAGGGCACCUAGGGCGCUGUUGCAACUACAAAGUACAUAUCAGGCUGAAGAUGCAGCCUGGAAAUAUAUACCAACAGAGGAUUGAGCAUCA
B2: 86284157_86292676_1654_3pUTR_ENSG00000135018_ENST00000376395|human|control|control (ssRNA)
RNA: GGGAGUUCUACAGUCCGACGAUCGCAGACAACAUGUUUUGCAUCAGUUGUGGGUUUUCAGUUAUUUGUUGCAACAAGCUCUGCAUUCCUGGUGUGUUGAACAUACUAGCUCCUACUCCAGGCACCAAAUUUGGCGCAGUAGUACAACAGAGGAUUGAGCAUCA
B3: chr5:69958400:69958401:+_ENSMUSG00000029208_ENSMUST00000154728|mus_mus|FALSE|FALSE (ssRNA)
RNA: GGGAGUUCUACAGUCCGACGAUCGUCAUAAAAAUCUACCACAAUUUCAUUCAAAGGGAAGAGAUAUUUAAGCAUAACUCUAUUUUCAUCAAUAAAAGUCAUAUUUUUCUGAAUUGCUCUUCGUGCCUGACAAAGCGCCAUUAUCAACAGAGGAUUGAGCAUCA
B4: chr1:109605286:109605287:-_ENSG00000197780_ENST00000461096|hu_mus|hu_hu_hu_mus_True|38_58 (ssRNA)
RNA: GGGAGUUCUACAGUCCGACGAUCAAGUUUCAGAGUAACAUUCAGUAACCUCUUUAAAUGCAAUUAUCCUUAUUAUAAACUAAGGGCAAUAAUAAUUUAAUACAUAGAGUGAACUACACACAAAGCCUGAACCGCGAAAAUGGUCAACAGAGGAUUGAGCAUCA
B5: chr18:21005031:21005032:-_ENSMUSG00000033382_ENSMUST00000025177|mus_hu|FALSE|FALSE (ssRNA)
RNA: GGGAGUUCUACAGUCCGACGAUCAAACUUCCAAAGCAAUGACAAAUCAGUCAACAAAAGUAGAACUUUCAAAGGGUUUCUAAAAGCCACUUCCACUGUAAUUGGUUCUUCUACAACUGCAAGUGGAAAUCUUGAAUUAUCUGACAACAGAGGAUUGAGCAUCA
B6: chr2:47387770:47387771:-_ENSG00000143933_ENST00000272298|hu_mus|hu_hu_hu_mus_True|8_38 (ssRNA)
RNA: GGGAGUUCUACAGUCCGACGAUCAAGGUUUAAGGACAAUGACAGUAAGAUAAGGGAAGAAAACAUGGAGGAAUGAAGUCCUAAUUACUAUACAUGCAUAUUUUUUUACAGUAGGGGGGGGGAACCUUACAGAUAAGAGUUACACAACAGAGGAUUGAGCAUCA
B7: chr8:95500983:95500984:-_ENSG00000164944_ENST00000437199|hu_hu|hu_hu_hu_mus_True|18_48 (ssRNA)
RNA: GGGAGUUCUACAGUCCGACGAUCAGAACACAUCUAUCGAGUAAAGGACCGUACAUGACGGCCUCUACCACUGCCUCCACUAACAAAACUUUCCUCUGAGCCUCCACUGCCGCUAUUUUGCACUAGCCAGGACGGUCCCAGGCCCAACAGAGGAUUGAGCAUCA
B8: chr18:34474267:34474268:+_ENSMUSG00000005871_ENSMUST00000115781|mus_mus|FALSE|FALSE (ssRNA)
RNA: GGGAGUUCUACAGUCCGACGAUCUUCUGAUUCAGUUUCAUUCCCAUUGUCGUUUUCCUGAACUGGAGGCAUGAUUCUUAAUUCUACAUCUUUCUGUAUAAAUGGCUCAUCCAGGCUCAGAGCACUUAGGCUGGAGGAACAAGACAACAGAGGAUUGAGCAUCA
B9: chr10:131964826:131964827:+_ENSG00000108010_ENST00000331244|hu_hu|motif|central (ssRNA)
RNA: GGGAGUUCUACAGUCCGACGAUCACUGGAAUAGGCUUUGAGUCCCUGUCGAACCUCUUCAUCUGAGAAGAUAUCAAAACUGCGGAACUGAAUAUUAUGUUUGUGAAGAAUUUCCACCAUCUGCUUGCUGAAACCACAGCGUGGCAACAGAGGAUUGAGCAUCA
B10: chr22:32879901:32879902:+_ENSG00000100225_ENST00000397426|hu_mus|hu_hu_hu_mus_False|1_108 (ssRNA)
RNA: GGGAGUUCUACAGUCCGACGAUCCUCUGCCAUAUGCAUGGCAUCCUGAAUUGACUCAGCUUCAACAUUUUGACUAGGCCCUUCCAUACUGUCAUCAGUCCAGGCAUCAAAUGGGGUGGCCUGUCCUUGGGAUGAAUCACUUGGCAACAGAGGAUUGAGCAUCA
B11: chr4:99997923:99997924:-_ENSG00000197894_ENST00000296412|hu_hu|motif|central (ssRNA)
RNA: GGGAGUUCUACAGUCCGACGAUCAGCACCAUAACCGGUUGAAAUGCCACAACCUAGAAGGCAGACUUUAUCCAAAGGUGCGGAAGGAUCUAUUUUAGCAACAGAGAUAUCAGCCACAACUGUGUAUUCAGAAAAUGUGCUGGUCAACAGAGGAUUGAGCAUCA
B12: chr8:104075188:104075189:+_ENSG00000155097_ENST00000518738|hu_mus|FALSE|FALSE (ssRNA)
RNA: GGGAGUUCUACAGUCCGACGAUCUUUUCUAAACAAGGUGACGUUACAAAGAUAACUGUCUUGGUCCUCUGAAAGAACAUUGCUUGACCUUGGUACUACCAUUUCUGCGAGCGUUUCAUACUGCUUAAUCCAGUCAUUGUGGUUCAACAGAGGAUUGAGCAUCA
B13: 54184345_54186628_411_CDS_ENSMUSG00000021474_ENSMUST00000021930|mouse|control|control (ssRNA)
RNA: GGGAGUUCUACAGUCCGACGAUCGUUUAUCCACUGCCAGAAAAGCACAGCCGGUGUGGUCCGGUAGAAGGUCAUCAUGCAGCCUGUGAUGGUCAUGUUCAUCGGGACCUGAGCUGACAUUCUUCCUAUCAGAGUCAUCUUUUCCAACAGAGGAUUGAGCAUCA
B14: chr2:66667028:66667029:+_ENSG00000143995_ENST00000407092|perfect_dup|motif|central (ssRNA)
RNA: GGGAGUUCUACAGUCCGACGAUCCUCUGACGAGCAGACGUCCCCGCCCGCCACCCCCGGCUCGCGGGGGGUACAAGUAGCGGAUUCACAUUUCUCAAAAAUCAGUGCUAAGAGAGGGAAGAGGGGGUGUCCAUAAAUGGCAUCCAACAGAGGAUUGAGCAUCA
B15: chr17:57752078:57752079:+_ENSG00000141367_ENST00000269122|hu_hu|FALSE|FALSE (ssRNA)
RNA: GGGAGUUCUACAGUCCGACGAUCAAUCAAGUUUUUUAUGACAUCUUCAGAACAGUCAACAUCAAGUAAUCCUCCAAUAACUACAGGAAGUCGACUUGGAUUCACCUUCUGUACAUAUAUCUCUAUAUACUUUUGAAGAUUAUUCAACAGAGGAUUGAGCAUCA
B16: 155556619_155559187_3351_CDS_ENSG00000184863_ENST00000401878|human|control|control (ssRNA)
RNA: GGGAGUUCUACAGUCCGACGAUCUCCUCUGCCUCGUCCGUGCAUGAUGGCCUUCUUCGCCGGGUGAAUUCCUUGGAUGCUUUUGAUCCCUGGAGGGACAGGCGAGUGUGCGUGGGGCCCCGCUGGCAGAUGUGGGGGCUGCUGCAACAGAGGAUUGAGCAUCA
B17: chr11:86991360:86991361:+_ENSMUSG00000018548_ENSMUST00000041282|mus_hu|FALSE|FALSE (ssRNA)
RNA: GGGAGUUCUACAGUCCGACGAUCUUCUCGAAUGAUAUUUUUUGUAGGAUCAUUACAGGACUGGUGAACCAUCUCUACACGAUAUUCAUAUUUAGAAGUUUCAGGCAAGCCAGCUGAGAGCUCCAGAAACACAGAUAAGUAGUACAACAGAGGAUUGAGCAUCA
B18: chr11:87793186:87793187:-_ENSMUSG00000020483_ENSMUST00000020775|mus_mus|FALSE|FALSE (ssRNA)
RNA: GGGAGUUCUACAGUCCGACGAUCCCAGAGUCUGGGAGGGCAGGGAAACACAGAUCUGGACAUUCAUAAGAAAAAUAAAACCUAAAAUCAAACAUUCAAUCCUGUACCCAAUAACGGUUUGAACAGGGAACUCAGUCCCCACCACAACAGAGGAUUGAGCAUCA
B19: chr14:78183846:78183847:+_ENSG00000119705_ENST00000557342|hu_hu|hu_hu_hu_mus_False|48_68 (ssRNA)
RNA: GGGAGUUCUACAGUCCGACGAUCUCUCAGAAAUCUUUCUUCAUCAGAUGUUUGAGCUCCGUGCAAAAGUUUUGGCCUUUGAGCUUGAACCUGGACCUAUGGGAGGGAAAGCACUGUCAGAAAAGGUAAUUUUUUUUUUAAAGACAACAGAGGAUUGAGCAUCA
B20: chr6:40197388:40197389:+_ENSMUSG00000057716_ENSMUST00000061740|mus_mus|mus_mus_mus_hu_False|38_68 (ssRNA)
RNA: GGGAGUUCUACAGUCCGACGAUCGAGACACUGGGGUGGAUUUAUUCCACCUCUGUUUGGGUGCUAGUAAGAUAGAUUGUUAUUUUGGGAUUCAUGGCCUUGAAGAUCAAGAGGGAAAGGAAGAGGAUGGAAAGAGUCAAGAGUCAACAGAGGAUUGAGCAUCA
B21: chr17:4210377:4210378:-_ENSG00000132388_ENST00000396981|hu_mus|motif|central (ssRNA)
RNA: GGGAGUUCUACAGUCCGACGAUCAAGUGUAUCUGGAGGACCAAUAAUAAGGACUUCCCAACGAUAGAGAUCAUUGUCGUCGGUUAAACCUGCUGAAAAGCCUUCCACUGGAUUUUUGUUGAGUUCUGCCAGCUGUCUUCGCAGCAACAGAGGAUUGAGCAUCA
B22: chr5:144009550:144009551:+_ENSMUSG00000029587_ENSMUST00000032591|mus_hu|FALSE|FALSE (ssRNA)
RNA: GGGAGUUCUACAGUCCGACGAUCGUCAAAAUUUACAGAAAAUAAAUCUCUAUAUCAACAGCUUAAAAUAAAUGACUUACCUAAAGUCCACUUCUGAACUGCAUAACUCCUAUAAAGGUUUCAGUCUGUACCAAUUAGAAUGUCCAACAGAGGAUUGAGCAUCA

The assay addresses T1, UNK ZnF1-3 (human, UniProt Q9C0B0 31-174).
T1 sequence: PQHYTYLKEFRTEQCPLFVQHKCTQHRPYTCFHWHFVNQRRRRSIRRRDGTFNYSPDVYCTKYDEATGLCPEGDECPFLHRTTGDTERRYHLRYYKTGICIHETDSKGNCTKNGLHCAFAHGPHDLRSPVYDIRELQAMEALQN
Nature of the assay: nsRBNS (natural sequence RNA bind-n-seq); RBNS binding buffer (assumed for nsRBNS): 25 mM Tris pH 7.5, 150 mM KCl, 3 mM MgCl2, 0.01% Triton X-100, 500 ug/ml BSA, 20 U/ml SUPERase-In, 4 C; UNK is unkempt and MSI1 is Musashi-1; names of the RNAs are library labels; protein concentration not given here; high values mean tight binding.
Consider B1, for which the binding signal is 1.01 enrichment R.
To B2 belongs 0.776 enrichment R; to B3, 0.84 enrichment R.
To B4 belongs 0.994 enrichment R.
On to B5, for which the binding signal came out at 0.557 enrichment R.
With B6, the binding signal is 2.32 enrichment R.
In the case of B7, the binding signal was 1.2 enrichment R.
To B8 belongs 0.769 enrichment R; to B9, 0.832 enrichment R.
To B10 belongs 0.852 enrichment R.
To B11 belongs 2.14 enrichment R; to B12, 0.69 enrichment R; to B13, 0.825 enrichment R.
B14 came in with a binding signal of 1.21 enrichment R.
As for B15, the binding signal was found to be 0.368 enrichment R.
Molecule B16 registered a binding signal of 0.967 enrichment R.
To B17 belongs 1.18 enrichment R; to B18, 1.62 enrichment R; to B19, 1.53 enrichment R.
Take B20: the binding signal is 1.7 enrichment R.
Consider B21, for which the binding signal was found to be 0.777 enrichment R.
With B22 the figure was 0.576 enrichment R.
